# In PubChem BioAssay (Tox21):
# Inconclusive means that the source gave no clear call. Such entries were picked first, then a sample of the others. For some of these results: Where the call is inconclusive, the potency comes from a doubtful curve fit. Activity calls are given as the source filed them. Unless noted, the call rests on the fitted dose curve; in most records, active means well fitted curve in the direction sought with a large enough effect in the repeat runs; inconclusive means weak or mixed curves; inactive means no such curve, though single readings can be large; an effect the other way counts as inactive or inconclusive.
# Columns and labels:
# [1] = qHTS assay to identify small molecule antagonists of the TGF-beta/Smad signaling pathway (AID 1346924; active means well fitted inhibition curve with a large enough effect in the signal ratio in the repeat runs, not every such curve was filed as active; inconclusive means weak or mixed curves; the % refers to the signal ratio); settings: SBE-bla HEK293T, TGF-beta/Smad reporter, beta-lactamase ratio; activity, negative = inhibition: at 76.8 µM (top of the series) unless noted
# Procedure, shortened: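 SBE-bla HEK 293T cells were plated overnight, then received compound in DMSO plus TGF-beta1 (added as a 0.25 ng/mL solution) and were incubated 5 h at 37 C. Beta-lactamase reporter activity was read after 2 h at room temperature with LiveBLAzer B/G FRET substrate (ex 405, em 460/530 nm).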
# [2] = target: Cytochrome P450 1A2 (Homo sapiens) (UniProt P05177); test: Cytochrome P450 Family 1 Subfamily A Member 2 (CYP1A2) small molecule antagonists: luciferase reporter qHTS assay (AID 1671199); further: nearly all actives have a fitted effect of over 50% in size; on activity change, negative = inhibition: on the % scale 0 is the no-effect control and ±100 the full control effect
# UniProt P05177, sequence (P05177 whole entry, looked up): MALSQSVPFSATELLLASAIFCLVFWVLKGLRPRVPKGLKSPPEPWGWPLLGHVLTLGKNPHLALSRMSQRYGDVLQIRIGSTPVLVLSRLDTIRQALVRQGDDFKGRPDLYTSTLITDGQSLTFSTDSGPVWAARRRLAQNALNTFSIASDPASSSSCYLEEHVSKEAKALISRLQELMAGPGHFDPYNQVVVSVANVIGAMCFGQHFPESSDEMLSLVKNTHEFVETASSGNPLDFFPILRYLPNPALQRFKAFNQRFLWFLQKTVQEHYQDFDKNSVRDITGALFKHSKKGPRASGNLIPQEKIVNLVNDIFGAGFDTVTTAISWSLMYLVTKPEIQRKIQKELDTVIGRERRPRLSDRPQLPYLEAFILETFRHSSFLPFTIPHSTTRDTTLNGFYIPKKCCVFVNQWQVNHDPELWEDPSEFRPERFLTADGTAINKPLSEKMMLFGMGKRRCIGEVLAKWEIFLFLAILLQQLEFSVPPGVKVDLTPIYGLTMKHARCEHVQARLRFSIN
# Procedure, shortened: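 Signal from luciferin formed by CYP1A2 from a proluciferin substrate is read as luminescence, expressed in relative luminescence units. Compounds sit with enzyme 10 min, NADPH-driven reaction runs 1 h, all at room temperature.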
# [3] = target: Voltage-gated inwardly rectifying potassium channel KCNH2 (Homo sapiens) (UniProt Q12809); test: Human Ether-a-go-go-Related Gene (hERG) channel small molecule antagonists: fluorescence cell-based qHTS assay (AID 1671200); further: nearly all actives have a fitted effect of over 50% in size;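 on activity change, negative = inhibition: hERG-expressing U2OS cells given a thallium stimulus after FluxOR II dye loading; on the % scale 0 is the no-effect control and ±100 the full control effect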
# UniProt Q12809, sequence (Q12809 whole entry, looked up): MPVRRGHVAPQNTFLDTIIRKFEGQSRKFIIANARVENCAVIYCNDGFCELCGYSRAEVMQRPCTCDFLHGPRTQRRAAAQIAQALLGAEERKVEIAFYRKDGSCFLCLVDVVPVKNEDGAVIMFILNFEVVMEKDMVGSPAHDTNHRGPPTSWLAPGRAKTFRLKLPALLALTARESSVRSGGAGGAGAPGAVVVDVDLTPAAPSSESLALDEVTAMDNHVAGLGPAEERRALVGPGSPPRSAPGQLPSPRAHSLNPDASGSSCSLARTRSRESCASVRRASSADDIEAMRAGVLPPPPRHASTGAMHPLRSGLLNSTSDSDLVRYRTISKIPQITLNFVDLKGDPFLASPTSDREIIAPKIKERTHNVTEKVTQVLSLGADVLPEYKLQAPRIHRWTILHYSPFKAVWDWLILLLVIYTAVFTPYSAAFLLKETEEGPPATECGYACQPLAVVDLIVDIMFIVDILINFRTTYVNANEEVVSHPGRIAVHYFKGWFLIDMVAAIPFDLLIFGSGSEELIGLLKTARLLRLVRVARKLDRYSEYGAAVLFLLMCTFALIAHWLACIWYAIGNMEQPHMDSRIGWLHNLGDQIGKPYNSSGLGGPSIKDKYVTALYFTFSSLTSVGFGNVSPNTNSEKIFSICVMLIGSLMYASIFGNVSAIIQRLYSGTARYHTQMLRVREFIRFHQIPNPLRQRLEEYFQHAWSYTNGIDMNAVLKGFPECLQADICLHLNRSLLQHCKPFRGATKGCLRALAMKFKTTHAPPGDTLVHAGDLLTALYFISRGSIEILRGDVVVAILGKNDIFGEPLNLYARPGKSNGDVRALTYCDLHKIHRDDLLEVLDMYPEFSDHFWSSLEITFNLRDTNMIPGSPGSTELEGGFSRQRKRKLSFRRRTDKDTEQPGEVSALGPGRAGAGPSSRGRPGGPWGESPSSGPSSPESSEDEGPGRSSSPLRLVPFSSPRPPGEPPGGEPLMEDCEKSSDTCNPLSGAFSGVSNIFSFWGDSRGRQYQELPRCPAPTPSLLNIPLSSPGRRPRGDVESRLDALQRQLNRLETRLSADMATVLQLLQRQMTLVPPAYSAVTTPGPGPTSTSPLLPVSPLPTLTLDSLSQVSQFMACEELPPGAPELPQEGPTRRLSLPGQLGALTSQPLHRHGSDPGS
# Procedure, shortened: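 In this thallium-flux screen, overnight-cultured U2OS cells bearing the channel are dye-loaded in darkness for an hour, rested 10 min at room temperature, and then monitored kinetically at 480/540 nm for two minutes post-stimulus.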
# [4] = Human pregnane X receptor (PXR) small molecule agonists, qHTS cell viability counter screen (AID 1346977); further: nearly all actives have a fitted effect of over 50% in size
# Procedure, shortened: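 In each well, the PXR reporter HepG2 line was checked for viability: CellTiter-Fluor reagent added 23hr post-dosing, fluorescence read after 1hr incubation at 37C.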
# [5] = Caspase-3/7 induction in HepG2 cells by small molecules, qHTS assay (AID 1346978); further: nearly all actives have a fitted effect of over 15% in size
# Procedure, shortened: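 Wild-type HepG2 cells, 2,000/well, settled 5 hr at 37 C and 5% CO2, then compound-treated for 17 hr; caspase-3/7 activity read by luminescent Caspase-Glo 3/7 after 30 min at room temperature.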
# [6] = Caspase-3/7 induction in CHO-K1 cells by small molecules, qHTS assay (AID 1346980); further: nearly all actives have a fitted effect of over 15% in size
# Procedure, shortened: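 Wild-type CHO-K1 cells exposed to compounds for 17hr at 37 C, 5% CO2. Caspase-3/7 activity then measured by Caspase-Glo 3/7 luminescence after 30min at room temperature.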
# [7] = Caspase-3/7 induction in HepG2 cells by small molecules, qHTS cell viability counter screen (AID 1346981); further: nearly all actives have a fitted effect of over 30% in size
# Procedure, shortened: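 Counter screen for cytotoxicity: HepG2 exposed 16 hr to compounds, then CellTiter-Fluor viability signal (fluorescence, 1 hr reagent incubation).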
# [8] = target: Cytochrome P450 2D6 (Homo sapiens) (UniProt P10635); test: Cytochrome P450 Family 2 Subfamily D Member 6 (CYP2D6) small molecule antagonists: luciferase reporter qHTS assay (AID 1671196); further: nearly all actives have a fitted effect of over 50% in size; on activity change, negative = inhibition: on the % scale 0 is the no-effect control and ±100 the full control effect
# UniProt P10635, sequence (P10635 whole entry, looked up): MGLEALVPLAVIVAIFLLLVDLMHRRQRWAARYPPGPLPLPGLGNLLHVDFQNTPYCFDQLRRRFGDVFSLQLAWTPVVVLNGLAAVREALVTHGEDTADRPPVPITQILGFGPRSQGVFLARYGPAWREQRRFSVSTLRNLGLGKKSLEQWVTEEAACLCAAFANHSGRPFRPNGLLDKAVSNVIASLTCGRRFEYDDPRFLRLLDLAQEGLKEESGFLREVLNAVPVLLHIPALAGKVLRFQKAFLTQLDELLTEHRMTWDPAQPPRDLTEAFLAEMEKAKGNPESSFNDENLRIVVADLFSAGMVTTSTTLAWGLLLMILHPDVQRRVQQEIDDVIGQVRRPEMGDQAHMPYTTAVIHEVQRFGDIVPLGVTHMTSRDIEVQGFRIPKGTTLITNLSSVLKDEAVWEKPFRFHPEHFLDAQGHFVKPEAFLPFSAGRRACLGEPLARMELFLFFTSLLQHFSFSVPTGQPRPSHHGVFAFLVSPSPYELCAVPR
# Procedure, shortened: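 Inhibition of CYP2D6 was gauged by loss of luminescence, since light produced tracks the luciferin generated from a proluciferin substrate. A 10 min room-temperature preincubation preceded 1 h NADPH-supported turnover.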
# [9] = Caspase-3/7 induction in CHO-K1 cells by small molecules, qHTS cell viability counter screen (AID 1346979); further: nearly all actives have a fitted effect of over 35% in size
# Procedure, shortened: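 Following a 5hr settling period, CHO-K1 cells at 1,500 per well received DMSO-dissolved compounds. Cell viability was quantified 16hr later by CellTiter-Fluor fluorescence, measured after 1hr with reagent at 37C.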
# [10] = target: Cytochrome P450 2C9 (Homo sapiens) (UniProt P11712); test: Cytochrome P450 Family 2 Subfamily C Member 9 (CYP2C9) small molecule antagonists: luciferase reporter qHTS assay (AID 1671198); further: nearly all actives have a fitted effect of over 50% in size
# UniProt P11712, sequence (P11712 whole entry, looked up): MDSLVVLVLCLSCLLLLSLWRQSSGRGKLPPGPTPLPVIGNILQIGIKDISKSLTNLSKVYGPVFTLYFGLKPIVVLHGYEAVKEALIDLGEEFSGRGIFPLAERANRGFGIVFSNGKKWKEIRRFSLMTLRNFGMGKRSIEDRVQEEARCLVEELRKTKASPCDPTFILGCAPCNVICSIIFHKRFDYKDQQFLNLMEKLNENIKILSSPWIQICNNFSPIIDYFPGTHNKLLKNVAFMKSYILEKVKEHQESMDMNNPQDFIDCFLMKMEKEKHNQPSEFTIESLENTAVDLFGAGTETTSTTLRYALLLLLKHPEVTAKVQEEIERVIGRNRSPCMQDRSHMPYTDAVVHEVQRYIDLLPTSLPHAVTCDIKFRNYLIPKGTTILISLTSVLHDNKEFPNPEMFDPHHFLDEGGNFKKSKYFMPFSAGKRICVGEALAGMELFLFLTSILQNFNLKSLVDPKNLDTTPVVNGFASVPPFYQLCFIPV
# Procedure, shortened: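 P450-Glo proluciferin substrate with CYP2C9 enzyme; 10 min RT preincubation, then NADPH regeneration 1 h at 37C; luciferin detection reagent 20 min RT, luminescence in relative luminescence units.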
# [11] = target: Nuclear receptor subfamily 1 group I member 2 (Homo sapiens) (UniProt O75469); test: Human pregnane X receptor (PXR) small molecule agonists, qHTS assay (AID 1346982); further: nearly all actives have a fitted effect of over 35% in size
# Procedure, shortened: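 Luminescence (ONE-Glo, 30 min RT) after 24 hr compound exposure of PXR-Luc HepG2 cells; cells rested 5 hr post-plating in 5% charcoal-stripped FBS medium.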
# [12] = target: Cytochrome P450 2C19 (Homo sapiens) (UniProt P33261); test: Cytochrome P450 Family 2 Subfamily C Member 19 (CYP2C19) small molecule antagonists: luciferase reporter qHTS assay (AID 1671197); further: nearly all actives have a fitted effect of over 65% in size
# UniProt P33261, sequence (P33261 whole entry, looked up): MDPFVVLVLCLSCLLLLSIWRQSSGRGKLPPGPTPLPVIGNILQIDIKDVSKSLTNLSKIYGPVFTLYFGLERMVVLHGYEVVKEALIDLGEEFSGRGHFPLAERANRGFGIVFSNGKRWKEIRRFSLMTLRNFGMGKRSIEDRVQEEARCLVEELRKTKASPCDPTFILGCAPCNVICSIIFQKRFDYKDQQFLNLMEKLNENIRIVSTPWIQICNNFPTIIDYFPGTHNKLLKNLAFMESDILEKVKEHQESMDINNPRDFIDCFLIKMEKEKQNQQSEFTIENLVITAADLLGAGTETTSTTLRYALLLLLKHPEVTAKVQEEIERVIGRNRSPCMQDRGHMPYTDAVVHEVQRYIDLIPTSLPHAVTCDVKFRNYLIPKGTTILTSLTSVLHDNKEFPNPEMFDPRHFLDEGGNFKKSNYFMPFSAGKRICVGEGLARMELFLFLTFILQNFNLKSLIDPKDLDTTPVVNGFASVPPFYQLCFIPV
# Procedure, shortened: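 First, compounds are pinned into enzyme-substrate mix and held 10 min at room temperature. Second, NADPH regeneration solution is added and plates incubate 1 h at 37C. Third, detection reagent is added and luminescence read after 20 min.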
# [13] = target: Nuclear receptor subfamily 1 group I member 2 (Rattus norvegicus) (UniProt Q9R1A7); test: Rat pregnane X receptor (rPXR) activation by small molecules, qHTS assay (AID 1346983); settings: rPXR luciferase reporter cells, One-Glo luminescence, 24 h; max activation: stronger effect = higher value; further: nearly all actives have a fitted effect of over 20% in size
# UniProt Q9R1A7, sequence (Q9R1A7 whole entry, looked up): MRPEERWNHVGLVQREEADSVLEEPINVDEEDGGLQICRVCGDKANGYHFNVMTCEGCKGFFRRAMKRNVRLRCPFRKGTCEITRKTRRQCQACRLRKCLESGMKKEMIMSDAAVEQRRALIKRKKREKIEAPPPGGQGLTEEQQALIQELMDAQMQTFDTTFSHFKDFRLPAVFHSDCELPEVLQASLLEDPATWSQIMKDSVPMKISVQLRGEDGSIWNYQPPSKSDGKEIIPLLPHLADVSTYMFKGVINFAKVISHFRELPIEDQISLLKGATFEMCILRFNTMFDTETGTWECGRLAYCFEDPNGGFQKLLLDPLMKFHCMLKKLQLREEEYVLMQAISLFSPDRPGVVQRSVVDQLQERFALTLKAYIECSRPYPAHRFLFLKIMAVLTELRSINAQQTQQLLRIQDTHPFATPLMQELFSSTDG
# Procedure, shortened: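 Cell-based rPXR activation assay: rPXR cells, 2,000 per well, rested 5hr at 37 C, then exposed to compounds in DMSO for 24 hr at 37 C. Luciferase activity read by One-Glo luminescence after 30 min at room temperature.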
# [14] = target: Nuclear receptor subfamily 1 group I member 2 (Homo sapiens) (UniProt O75469); test: CYP3A4 induction through human pregnane X receptor (PXR) by small molecules, qHTS assay (AID 1346984); further: nearly all actives have a fitted effect of over 40% in size
# Procedure, shortened: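 DPX-2 reporter cells; 24h cpd, 37C; Luciferin-IPA 3uM final x3h; One-Glo 30 min RT; lumi read.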
# [15] = target: Nuclear receptor subfamily 1 group I member 2 (Homo sapiens) (UniProt O75469); test: Human pregnane X receptor (PXR) activation by small molecules, qHTS assay (AID 1346985); further: nearly all actives have a fitted effect of over 40% in size
# Procedure, shortened: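 DPX-2 cells (HepG2 co-transfected with a PXR response element and a CYP3A4-promoter luciferase construct) were seeded at 2,000 per well, rested 5 hr at 37C, then exposed to DMSO-dissolved compounds for 24 hr. Activation was read as luciferase luminescence.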
# Potency means the concentration at half of the fitted maximal effect; tags describe the fitted curve by direction and shape or compound fluorescence and quenching.
smiles,measurement,setting,value
CSc1ccc(/C=C2/C(C)=C(CC(=O)O)c3cc(F)ccc32)cc1,Potency,[1],"inconclusive: 0.952 µM [fluorescent, full curve]"
same,Potency,[2],active: 15.5 µM
CC1(C)CC(=O)CC(C)(C)N1,"activity, negative = inhibition",[1],inconclusive: -3.55%
same,Potency,[3],inactive
C[C@@H]1C[C@H]2[C@@H]3CCC4=CC(=O)C=C[C@]4(C)[C@@]3(Cl)[C@@H](O)C[C@]2(C)[C@@]1(OC(=O)c1ccco1)C(=O)CCl,Potency,[4],"inconclusive: 26.6 µM [cytotoxic, single point]"
same,Potency,[5],"inconclusive: 29.8 µM [activator, single point]"
same,Potency,[6],"inconclusive: 33.5 µM [activator, partial curve, poor fit]"
same,Potency,[7],"inconclusive: 29.8 µM [cytotoxic, single point]"
same,Potency,[8],active: 3.89 µM
same,Potency,[2],inactive
C[n+]1ccn(Cc2ccccc2)c1,Potency,[4],"inconclusive: 60.9 µM [cytotoxic, partial curve]"
CCCOC(=O)c1ccc(C(=O)OCCC)nc1,"activity, negative = inhibition",[1],inconclusive: 3.83%
same,Potency,[2],active: 11.2 µM
CC(C)(C)c1cc(O)c(C(C)(C)C)cc1O,"activity, negative = inhibition",[1],inconclusive: -2.72%
same,Potency,[3],"inconclusive: 61.6 µM [inhibitor, partial curve, poor fit]"
COc1cc(C(=O)NC2CCN(C)CC2)ccc1Nc1ncc2c(n1)N(C1CCCC1)CC(F)(F)C(=O)N2C,Potency,[4],active: 8.88 µM
same,Potency,[5],active: 22.3 µM
same,Potency,[7],active: 15.8 µM
same,Potency,[8],inactive
same,Potency,[2],inactive
CCO/C([O-])=N/c1c[n+](N2CCOCC2)no1,Potency,[4],inactive
CC(C)Nc1cccnc1N1CCN(C(=O)c2cc3cc(NS(C)(=O)=O)ccc3[nH]2)CC1,Potency,[4],inactive
CC1=NN(c2ccc(S(=O)(=O)O)cc2)C(=O)C1N=Nc1ccccc1 (stereo not given),Potency,[4],"inconclusive: 54.5 µM [cytotoxic, partial curve]"
same,Potency,[9],active: 48.6 µM
same,Potency,[7],active: 61.1 µM
same,Potency,[10],"inconclusive: 63.3 µM [inhibitor, partial curve]"
COCC(=O)O[C@]1(CCN(C)CCCc2nc3ccccc3[nH]2)CCc2cc(F)ccc2[C@@H]1C(C)C,Potency,[4],active: 23.7 µM
same,Potency,[9],active: 29.8 µM
same,Potency,[6],"inconclusive: 33.5 µM [activator, single point]"
same,Potency,[11],active: 1.68 µM
same,Potency,[8],"inconclusive: 0.138 µM [inhibitor, full curve, poor fit]"
same,Potency,[12],"inconclusive: 38.9 µM [inhibitor, single point]"
CCCC(C(=O)OCCN(CC)CC)(c1ccccc1)c1ccccc1,Potency,[4],active: 26.6 µM
same,Potency,[9],"inconclusive: 29.8 µM [cytotoxic, single point]"
same,Potency,[7],"inconclusive: 33.5 µM [cytotoxic, single point]"
same,Potency,[13],active: 22.4 µM
same,Potency,[14],active: 10 µM
same,Potency,[15],active: 15.8 µM
same,Potency,[10],active: 13.8 µM
same,Potency,[2],inactive
same,Potency,[3],active: 8.49 µM
O=[N+]([O-])c1cc(Cl)c(Cl)c(Cl)c1Cl,Potency,[1],"inconclusive: 54.8 µM [rising, single point]"
same,Potency,[10],"inconclusive: 56.2 µM [inhibitor, partial curve, poor fit]"
CC(NCCC(c1ccccc1)c1ccccc1)c1ccccc1 (stereo not given),Potency,[4],active: 26.6 µM
same,Potency,[5],inconclusive: 33.5 µM [activator]
same,Potency,[9],"inconclusive: 33.5 µM [cytotoxic, single point]"
same,Potency,[6],"inconclusive: 33.5 µM [activator, single point]"
same,Potency,[14],"inconclusive: 5.01 µM [activator, partial curve, poor fit]"
same,Potency,[15],"inconclusive: 7.94 µM [activator, partial curve, poor fit]"
same,Potency,[12],active: 4.36 µM
same,Potency,[3],active: 1.69 µM
Nc1c(NC/C=C\COc2cc(CN3CCCCC3)ccn2)c(=O)c1=O,Potency,[4],"inconclusive: 10.3 µM [cytotoxic, partial curve, poor fit]"
same,Potency,[9],inconclusive: 14.6 µM [cytotoxic]
same,Potency,[7],"inconclusive: 13 µM [cytotoxic, partial curve]"
same,"activity change, negative = inhibition",[2],inactive: 11.8% [at 23.6 µM]
